Results are given in words; binding and its absence hold for the method and conditions named. Binding seen in cells or lysates may run through a third protein. Some results given as binding are weak or reduced against the parent protein; the word gives no strength.

By UniProt entry, the sequences of proteins in these tests, tags left out. Where a name states a change or a piece, a line headed by the entry shows the natural chain unless it says otherwise. Chains listed by the source or under a name are the forms on record and can include a tag or linker. Residues count along the entry.
UniProt Q804S5: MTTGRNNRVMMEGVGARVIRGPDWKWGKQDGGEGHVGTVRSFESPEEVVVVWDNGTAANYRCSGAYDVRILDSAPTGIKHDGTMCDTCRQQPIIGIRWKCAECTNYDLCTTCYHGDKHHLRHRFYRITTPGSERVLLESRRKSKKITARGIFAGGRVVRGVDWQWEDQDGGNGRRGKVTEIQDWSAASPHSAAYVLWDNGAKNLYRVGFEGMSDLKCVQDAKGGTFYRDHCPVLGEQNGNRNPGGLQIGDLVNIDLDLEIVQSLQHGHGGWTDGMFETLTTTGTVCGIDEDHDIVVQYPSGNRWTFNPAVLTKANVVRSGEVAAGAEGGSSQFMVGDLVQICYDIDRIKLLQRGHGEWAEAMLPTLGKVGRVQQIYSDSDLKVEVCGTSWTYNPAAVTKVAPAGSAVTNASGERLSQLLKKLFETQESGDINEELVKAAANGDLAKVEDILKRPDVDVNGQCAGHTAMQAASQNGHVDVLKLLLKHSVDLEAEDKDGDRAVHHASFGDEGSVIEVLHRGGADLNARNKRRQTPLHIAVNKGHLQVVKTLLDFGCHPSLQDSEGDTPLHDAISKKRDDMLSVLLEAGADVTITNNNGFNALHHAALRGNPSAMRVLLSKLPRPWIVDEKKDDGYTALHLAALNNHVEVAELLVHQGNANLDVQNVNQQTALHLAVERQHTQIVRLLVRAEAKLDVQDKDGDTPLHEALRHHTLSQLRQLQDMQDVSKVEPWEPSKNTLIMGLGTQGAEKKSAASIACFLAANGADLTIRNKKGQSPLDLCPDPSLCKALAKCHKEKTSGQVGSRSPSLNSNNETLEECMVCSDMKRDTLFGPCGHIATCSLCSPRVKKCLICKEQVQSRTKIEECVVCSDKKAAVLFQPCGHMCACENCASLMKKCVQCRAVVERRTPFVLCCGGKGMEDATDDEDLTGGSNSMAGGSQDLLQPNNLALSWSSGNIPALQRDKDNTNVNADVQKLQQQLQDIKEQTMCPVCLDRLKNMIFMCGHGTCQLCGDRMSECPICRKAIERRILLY
UniProt Q8UWJ4: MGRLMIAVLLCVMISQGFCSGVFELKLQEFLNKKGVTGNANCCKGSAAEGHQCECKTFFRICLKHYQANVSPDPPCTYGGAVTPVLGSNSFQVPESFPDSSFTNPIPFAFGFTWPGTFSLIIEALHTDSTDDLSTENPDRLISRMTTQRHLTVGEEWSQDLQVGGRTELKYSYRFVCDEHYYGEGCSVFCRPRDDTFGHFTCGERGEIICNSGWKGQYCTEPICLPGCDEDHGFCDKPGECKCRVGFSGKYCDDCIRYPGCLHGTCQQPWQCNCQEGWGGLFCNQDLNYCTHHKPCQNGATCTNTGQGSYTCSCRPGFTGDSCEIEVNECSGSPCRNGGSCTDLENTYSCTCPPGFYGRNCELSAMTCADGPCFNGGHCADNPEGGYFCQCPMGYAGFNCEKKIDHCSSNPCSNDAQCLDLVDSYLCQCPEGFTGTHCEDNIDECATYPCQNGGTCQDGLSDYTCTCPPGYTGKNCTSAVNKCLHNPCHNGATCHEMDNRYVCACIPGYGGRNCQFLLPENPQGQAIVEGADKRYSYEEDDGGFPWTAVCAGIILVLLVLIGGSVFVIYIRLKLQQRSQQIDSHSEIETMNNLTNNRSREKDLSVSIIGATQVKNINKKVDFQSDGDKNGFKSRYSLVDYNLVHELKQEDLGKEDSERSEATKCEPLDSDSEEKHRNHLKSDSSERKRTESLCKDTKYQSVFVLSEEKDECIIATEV
full-length DeltaD: residues 20-717 of Q8UWJ4
DeltaD ∆D (with terminal amino acids 694 to 717 deleted): residues 20-693 of Q8UWJ4
DeltaD ∆C-D (with aa 626 to 717 deleted): residues 20-625 of Q8UWJ4
DeltaD ∆B-D (with aa 584 to 717 deleted): residues 20-583 of Q8UWJ4
DeltaD ∆A-HA (A domain, aa 573–584, deleted) (Q8UWJ4, form named): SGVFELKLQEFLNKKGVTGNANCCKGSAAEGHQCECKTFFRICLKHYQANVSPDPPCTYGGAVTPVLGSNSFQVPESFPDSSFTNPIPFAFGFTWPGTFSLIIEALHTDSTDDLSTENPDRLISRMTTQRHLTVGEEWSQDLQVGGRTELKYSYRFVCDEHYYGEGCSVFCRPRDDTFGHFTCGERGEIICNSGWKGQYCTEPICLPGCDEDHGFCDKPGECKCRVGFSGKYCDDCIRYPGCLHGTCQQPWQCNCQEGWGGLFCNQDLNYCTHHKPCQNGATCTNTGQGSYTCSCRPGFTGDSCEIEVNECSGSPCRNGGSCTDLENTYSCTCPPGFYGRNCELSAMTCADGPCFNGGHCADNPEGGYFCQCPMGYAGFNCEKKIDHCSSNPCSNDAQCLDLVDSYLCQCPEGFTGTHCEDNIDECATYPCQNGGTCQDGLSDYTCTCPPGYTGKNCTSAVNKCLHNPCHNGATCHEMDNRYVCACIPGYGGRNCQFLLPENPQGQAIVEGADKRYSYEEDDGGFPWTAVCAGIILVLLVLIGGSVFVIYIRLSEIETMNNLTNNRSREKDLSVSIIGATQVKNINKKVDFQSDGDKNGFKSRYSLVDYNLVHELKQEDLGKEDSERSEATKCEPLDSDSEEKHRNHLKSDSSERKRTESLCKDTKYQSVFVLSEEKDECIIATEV
DeltaD ∆C-HA (C domain, aa 626–694, deleted) (Q8UWJ4, form named): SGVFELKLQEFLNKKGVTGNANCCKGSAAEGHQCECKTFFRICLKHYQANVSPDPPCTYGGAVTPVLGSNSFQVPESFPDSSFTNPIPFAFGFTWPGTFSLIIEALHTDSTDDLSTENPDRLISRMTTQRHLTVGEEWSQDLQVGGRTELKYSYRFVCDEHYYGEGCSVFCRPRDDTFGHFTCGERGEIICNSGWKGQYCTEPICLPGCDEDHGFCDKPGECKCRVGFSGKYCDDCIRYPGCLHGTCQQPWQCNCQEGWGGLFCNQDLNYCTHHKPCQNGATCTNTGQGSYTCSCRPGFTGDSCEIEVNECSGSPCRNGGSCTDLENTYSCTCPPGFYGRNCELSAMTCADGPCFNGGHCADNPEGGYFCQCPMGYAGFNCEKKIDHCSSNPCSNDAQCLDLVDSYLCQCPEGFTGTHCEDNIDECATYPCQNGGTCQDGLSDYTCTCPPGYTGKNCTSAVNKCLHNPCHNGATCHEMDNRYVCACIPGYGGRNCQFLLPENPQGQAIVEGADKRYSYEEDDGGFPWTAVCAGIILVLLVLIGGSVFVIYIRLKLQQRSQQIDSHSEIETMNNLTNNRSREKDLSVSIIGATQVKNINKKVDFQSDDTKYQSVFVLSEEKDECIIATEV
DeltaD-NN (N591A / N592A) (Q8UWJ4, form named): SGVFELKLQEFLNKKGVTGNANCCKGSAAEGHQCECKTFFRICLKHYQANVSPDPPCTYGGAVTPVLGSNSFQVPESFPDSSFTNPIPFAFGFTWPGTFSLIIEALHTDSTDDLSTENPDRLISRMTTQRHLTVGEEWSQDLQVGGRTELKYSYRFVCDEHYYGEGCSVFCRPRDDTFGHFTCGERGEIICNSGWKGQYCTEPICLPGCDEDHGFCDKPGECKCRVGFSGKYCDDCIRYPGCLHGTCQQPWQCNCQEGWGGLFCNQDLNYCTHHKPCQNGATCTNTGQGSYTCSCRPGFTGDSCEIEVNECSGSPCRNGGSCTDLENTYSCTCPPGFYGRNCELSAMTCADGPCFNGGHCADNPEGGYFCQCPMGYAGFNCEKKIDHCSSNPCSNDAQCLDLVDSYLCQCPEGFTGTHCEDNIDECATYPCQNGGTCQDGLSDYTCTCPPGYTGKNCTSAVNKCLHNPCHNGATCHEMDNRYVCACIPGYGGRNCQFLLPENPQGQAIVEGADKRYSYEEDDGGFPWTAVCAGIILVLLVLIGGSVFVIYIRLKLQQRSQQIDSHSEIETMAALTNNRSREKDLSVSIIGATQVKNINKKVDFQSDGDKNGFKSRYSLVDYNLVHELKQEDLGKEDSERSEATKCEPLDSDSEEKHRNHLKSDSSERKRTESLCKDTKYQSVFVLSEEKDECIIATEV
DeltaD-NN/KK (N591A / N592A / K614A / N615A / N617A / K618A / K619A) (Q8UWJ4, form named): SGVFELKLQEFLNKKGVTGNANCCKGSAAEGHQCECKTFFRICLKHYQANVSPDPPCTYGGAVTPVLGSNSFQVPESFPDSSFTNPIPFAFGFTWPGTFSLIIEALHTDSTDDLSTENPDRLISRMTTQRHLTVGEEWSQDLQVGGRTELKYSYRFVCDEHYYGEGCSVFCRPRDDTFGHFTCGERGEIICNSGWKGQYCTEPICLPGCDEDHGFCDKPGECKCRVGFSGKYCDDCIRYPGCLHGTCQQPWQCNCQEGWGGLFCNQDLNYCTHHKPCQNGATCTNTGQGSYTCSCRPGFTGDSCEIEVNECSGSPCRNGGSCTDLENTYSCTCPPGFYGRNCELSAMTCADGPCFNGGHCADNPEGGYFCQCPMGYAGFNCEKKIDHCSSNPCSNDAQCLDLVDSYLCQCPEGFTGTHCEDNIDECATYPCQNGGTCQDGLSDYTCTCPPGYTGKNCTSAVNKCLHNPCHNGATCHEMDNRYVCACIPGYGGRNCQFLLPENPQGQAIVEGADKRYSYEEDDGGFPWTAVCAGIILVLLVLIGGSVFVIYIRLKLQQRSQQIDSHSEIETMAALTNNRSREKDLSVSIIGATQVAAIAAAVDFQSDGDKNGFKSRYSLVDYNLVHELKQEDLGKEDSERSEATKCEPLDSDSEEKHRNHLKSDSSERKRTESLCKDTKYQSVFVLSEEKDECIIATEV

Assay [1] has as its target Myc-Mib1 (Mind bomb1, RING E3 ligase) (zebrafish) (UniProt Q804S5). Put plainly: co-IP; COS 7 or HEK293T cells co-transfected with HA-tagged DeltaD forms with or without Myc-Mib1; Myc-Mib1 precipitated with anti-Myc, DeltaD detected with anti-HA; modified RIPA buffer, 4C.
In assay [2] the target is DeltaD ∆B-D (with aa 584 to 717 deleted) (zebrafish) (UniProt Q8UWJ4). Put plainly: co-IP; HEK293T cells co-transfected with untagged DeltaD forms and Myc-Mib1; DeltaD precipitated with zdd2 antibody, Mib1 detected with anti-Myc; modified RIPA buffer (50mM Tris-HCL pH7.4, 150mM NaCl, 1% NP-40, 0.25% sodium deoxycholate), 4C.
Assay [3] deals with DeltaD ∆C-D (with aa 626 to 717 deleted) (zebrafish) (UniProt Q8UWJ4). Described as above.
For assay [4], the target named is DeltaD ∆D (with terminal amino acids 694 to 717 deleted) (zebrafish) (UniProt Q8UWJ4). The assay is described as above.
For assay [5], the target named is full-length DeltaD (zebrafish) (UniProt Q8UWJ4). Described as above.

Consider “DeltaD ∆A-HA (A domain, aa 573–584, deleted) (from UniProt Q8UWJ4 20-717) (ligand)”, for which, in assay [1], the binding result is “binds weakly”.

“DeltaD ∆C-HA (C domain, aa 626–694, deleted) (from UniProt Q8UWJ4 20-717) (ligand)”: the binding entry in assay [1] was “binds”.

Consider “DeltaD ∆D-HA (D domain, 694–717, deleted) (from UniProt Q8UWJ4 20-693) (domain or fragment)”, for which the binding entry in assay [1] is on record as “binds”.

For “DeltaD-HA (HA-tagged full length DeltaD) (from UniProt Q8UWJ4 20-717) (ligand)”, the binding entry in assay [1] is given as “binds”.

With “DeltaD-NN (N591A / N592A) (from UniProt Q8UWJ4 20-717) (ligand)”, the binding result in assay [1] was “binds”.

For the substance “DeltaD-NN/KK (N591A / N592A / K614A / N615A / N617A / K618A / K619A) (from UniProt Q8UWJ4 20-717) (ligand)”, the binding entry in assay [1] is on record as “no binding”.

As for “Myc-Mib1 (Mind bomb1, RING E3 ligase) (from UniProt Q804S5 1-1030) (enzyme)”, the binding entry is “no binding” in assay [2], “binds” in assay [3], “binds” in assay [4] and “binds” in assay [5].

The record behind these values is article PMC4447371.
